Experimental data: article PMC10726135
The list shows a part of the results. At the low end of the ranking the order means little. The protein was read in a cell extract, so binding may be indirect.

These sequences were tested against T1, HNF4alpha8 (COS-7 nuclear extract) (UniProt P41235-5) (assay: protein-binding microarray). Conditions: COS-7 nuclear extract on double-stranded Agilent 4x180k PBM; binding buffer, salt, pH and temperature not given; high values mean tight binding; double strand, one strand shown; sequences stand for … in …GCCTAGGGAGATTAGAGTATCGGTCGA.
T1 sequence: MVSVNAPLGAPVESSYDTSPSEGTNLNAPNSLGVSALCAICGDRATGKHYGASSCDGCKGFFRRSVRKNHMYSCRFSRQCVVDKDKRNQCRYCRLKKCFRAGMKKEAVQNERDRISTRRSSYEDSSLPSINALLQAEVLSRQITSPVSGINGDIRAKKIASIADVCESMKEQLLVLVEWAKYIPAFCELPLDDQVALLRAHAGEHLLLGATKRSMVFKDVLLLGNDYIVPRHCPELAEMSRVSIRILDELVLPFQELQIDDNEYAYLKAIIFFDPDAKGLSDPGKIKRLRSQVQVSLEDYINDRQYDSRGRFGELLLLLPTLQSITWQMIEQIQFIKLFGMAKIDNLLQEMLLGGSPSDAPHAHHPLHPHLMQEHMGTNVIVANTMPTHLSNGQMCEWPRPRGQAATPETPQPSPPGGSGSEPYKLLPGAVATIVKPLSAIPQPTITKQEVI

| Sequence | binding signal (log2 normalized intensity) |
| --- | --- |
| AGACAACCTGGGTGTAGGTGCTGCACCTTG | 1.21 |
| CAAGGGCAACTCTAATAGCACAGATCACAT | -0.972 |
| AATGGATCCACTCAGTATGGCAACCTTTGT | 4.13 |
| GAGCTCCTTGTGAGCAGGATTATAGTTTAT | 0.267 |
| ACAGTTAGAAGTACTAGATTTGGAACTCAG | -0.00311 |
| CAGGGTTCACATAGCCACCAGGGCCTCTGA | -1.33 |
| CTTGGCACTTAGCACAAGTGACTATTCTGG | 0.0244 |
| CAAGGCCTACCTTGGGTTCTCACTATCACC | -0.925 |
| TAAAGTCACAAAGGTGGAACTCAAGATAGT | -0.957 |
| GTGTGTATGAAAGGCCACCAGGTGGAGTCT | 0.964 |
| AGGTACTGGTAGCCTGGGCCCCAGGGGACG | -0.625 |
| CTTTCCTAGACGTAAGACAACATCTGGTGT | 1.14 |
| TCCCTATGTTGTCCCTGCCCTTTGTCCAGG | 4.72 |
| AAATCCAAAGGGCATCAGCCCCAATGGCTA | -0.66 |
| GAGATAACTGGGGGCATAGCCCATGCAAAT | -1.32 |
| GTGAGATGGCTCAGCCTGGCTGTGTAGACA | -1.39 |
| CGGGAGGGAGAGAAGGACATCTATCATTTT | -1.32 |
| TTTTGTTTAGGAAGAGATCAAAGTTCTGTT | 3.66 |
| GACATCTGGAAATGTTTGTAGGGACTTTGA | 5.1 |
| CCTGCCGGCGGCGCAGACGGCGGATCCTCC | -1.37 |
| TACGTTTCTTTCATGTCATAGTAAATCCAC | 1.03 |
| ACAGATAAACCCCTGGAGCACAGAAGGAGG | -1.41 |
| TAACTCCTTTGTGTGAATCGACCTTTAGCA | 6.42 |
| CTTCCAGTATCTTAGCCAAAGAGAAGCCTA | -1.31 |
| TGGACATTGGCCCTTTGACCTTTAATCAAG | 7.21 |

| Sequence | binding signal (log2 normalized intensity) |
| --- | --- |
| CCACCGTGGTGTAGAGGCCCTGCAGGGCCC | -1.24 |
| ATCTACCCTTGACAATTCCTATTCATTCCC | 0.122 |
| CTTCCTGAATGCCTAGGTGACAAGGAAAAC | -1.2 |
| AGAGGAGGGGGCAGGAGCCCAAGAAGCGTC | -1.29 |
| AGGCCACTCCTGATAGCTAGAGAGTTCAAG | 0.377 |
| ACCTTTATCTGATCAGAAATGTTTGGAATT | 1.84 |
| CCCCTGCATGAACCTTTGCTCCCTGGGAAC | 4.71 |
| CTGCCTCCCTGTCAGCTTCACTGATAGCGA | -1.42 |
| CTGTTTACCCACTTGGGGTTCTTGGATCCT | 1.19 |
| AAGTCTCAGAAGCTGGGAGACCACTGGTGT | 0.192 |
| TTATCTCCAAGACCCTTCATAGCTTACTTG | -0.778 |
| TTTGCCCCACTCTCCTCTGCCACTGTATCA | 2.88 |
| ATGGTGTTTGCTTTGTGAAGGCTTATCTGC | 0.591 |
| CTCGGCCTCATGGGCGATCCCGAAAGCCGG | -1.42 |
| ACCCCTGATCTACAAGGTCCATAAAACCAG | 0.423 |
| GGTCCGCAGGGCTGCCTCGCTTCCGGGTGG | -1.34 |
| GCAGGTTCTCAGAAACGCCTGGCGCTTATC | -1.25 |
| CCCCCGCAACTATTTATGAGTCTTGGGAAT | 0.709 |
| CACAAACATTCCAGTGGTCCCTGGAGATAA | -1.21 |
| TTTTGCCTCCGCTCCGCCGGACCGGCCAAA | -1.25 |
| AAAGATTCTTAGAGAGTTGGGCAAGACTCG | -1.32 |
| CATACCAGGTGTAAAGTCTGGCATACAGGG | 0.00259 |
| AGGGCAAAGGTTAGCTTGGACAGAGTTTGT | 4.13 |
| GGATGGGGCCTGGGAGATAAGGGTTCAGAT | 1.1 |
| ATAAGGTAGGCACGTAAATAAGGATAAAGT | -1.13 |

| Sequence | binding signal (log2 normalized intensity) |
| --- | --- |
| TCAATGATACCATCAGATACCTACTCTGCT | -1.34 |
| AGTTGAGATTTATTCCCAGGTTCCAAAGGT | 2.89 |
| AGCTCCTGGGCCAAAGGGCATTCTGGAGTT | 3.41 |
| AGTGGGGTGGGGGCGAGAGAGTTCTATGGG | -1.23 |
| GGGACGCGACCTCCGGGAAAGCTATCCCGG | -1.33 |
| TGGTTTATCTGTTGTCAAACCCACATTCTT | 0.308 |
| GATGGCAGCTTCATTCCAGCCCCATTCTGT | 0.145 |
| GGTGAGTCTTTGCCCCTGGACTTTGAATTT | 5.75 |
| AATTTTCTCTGTATACTTGTCTTATCAGCA | 0.594 |
| TCTGTTTGATTCCATGCTGATAATGGAATT | 1.8 |
| AAGGTTAAGCCATTGGGCAATCCAATGTCT | -1.13 |
| TTCAAAGGTTAAGACTTTGAATCAGTAAAT | 1.36 |
| GTATTGCTCAATGTCAAACACACTGTAACA | -1.35 |
| GATGTGGAAATCTGGACTCAGCAGAACTTT | 2 |
| AGACAGTCACTCCCACCCTTCCTGTTATGT | 2.04 |
| TTGGTGGAATCTGAACTTTTGGCTCCCTGG | 1.94 |
| CATCATGCCCTTTGGCCCCCAGAGCCCCGT | 6.64 |
| TGGATGTTGAACCTCTGTCCTTGGCCTCAC | 2.44 |
| TTCTTCCCTCACTTACATCCTCAGGTAAAG | 1.5 |
| TGGAGGGCAGTGGATGGGGGCGTTCCCCGA | 0.534 |
| ATTGTGATTCCTGTGATACCTTCTTTGCCT | 0.781 |
| AGAGCTCAGAAGCCACCAGTGCAAATATAA | -1.44 |
| TGCATCAGTGCTGACCTACCTGACCTGGCA | 2.13 |
| AAACTTCACAATGGGCCCCAGTAAAAACAG | -1.27 |
| CTTTTGAGTTTCTACCATAGACCCTGTTGG | 0.898 |

| Sequence | binding signal (log2 normalized intensity) |
| --- | --- |
| ACTTAGCCCTTGTCTTCCTCTCTGAAGGAT | 0.709 |
| GTGTGTCAACAGAGTGCTTAATCTCTGCTC | 0.938 |
| CACATGGCCGTAAAGATAAGAACGCTAGAC | -1.38 |
| ATTAACCCTTTAGTGCCTGGATCTTGGAAC | 2.04 |
| GAAAACCCGGAGCGGAGCATCCCTCGGGCC | -1.31 |
| TGTGCCTCTTAGTGAAGGATGGGGACCTTG | 1.41 |
| AGAGAGTCTGGCTGACTAACAAGCTGCCAA | -1.3 |
| ATCCAGAGTGGGACAAAGTTCCCCGGGCAG | -0.66 |
| AATGTACAAAGGTCAACGGCACAAGGAGAT | 5.27 |
| TTCCACAAGGTCCCATGGCTAATCTGTGAC | -0.0962 |
| TCAAATCTAAACCTAGCAGCCTGCCACCCA | -1.22 |
| GATAAGATTTTAGAAGTCACTCCTTCCTCA | -1.35 |
| GAGTGGGACAAAGTTCCCCGGGCAGCTGTG | 0.567 |
| TCAGAGGAATGTCTGACCAACCTGTCCAAA | -0.555 |
| CGCCCGCGCTGCTCGCAAGCAGAACCTTGG | -1.42 |
| CCACTGGAGTCTTGTTTGTCAAGTTTGGTA | 1.71 |
| TCTTGGCCAACAACTAGGGCAAAGGTTAGC | 5.45 |
| TATCTCACTCCCACACTGGTAACCTTTAGT | 2.55 |
| AAGGAGAACTGAGTAGGAGAATGTTAATGA | -1.25 |
| GAGGCAGCAAGGTCAAAGTGCGTCCTGTGG | 4.65 |
| GGCTGATGTCTTTCTGGCTGGAGAGGAGGT | 0.3 |
| CTGGGTGGGGATAAGAAAAGATCAAGGGCA | -0.912 |
| ACTGGTTTCTTGTCTGCCCCAGGGCTTTGC | 1.67 |
| TCTCTTATAGGTGTTTATAAAGTTGGGAAA | 1.13 |
| GCAACTACAAGGAGCAGCCTAGTAAAAGGT | -1.31 |

| Sequence | binding signal (log2 normalized intensity) |
| --- | --- |
| AGAAAATGTGCCCTTTGGACAGAAATATCA | 5 |
| GAGAGTATGGGATGATCAGTAAGGAGAGGG | -1.36 |
| AAGCAAGCCCTATTAGGCATTTCATTTGCC | -1.28 |
| GATGTAATAGGGTGACAGTATCAAAGTCCC | 3.05 |
| GGAGCAAAGGTTGGGGGTGGGGAGGAAGCA | -1.32 |
| CAGCTGGGCTTGTTCAAATAACAGCAACAT | -1.32 |
| TCCAAAATACGACCTTTGGACAGGGTGACG | 7.56 |
| GCATTATCAGGCAAGGGTGGTGACAAAGAC | -1.17 |
| CAACTCAGAGACAGGGATTGGTTCTCAACA | -1.29 |
| GTTGTGGAATGTGCTTGGACCTGCTCTGTT | 2.33 |
| TGGTTTCTGTTTGAGGGGAAGAGAGTATGG | -0.41 |
| GTTCCGTGTTCCAGAGCCTCCAAAGTCCGC | 2.8 |
| CTGGGGCCTCCTGGCTGGGCAGGCTCCCTC | -1.26 |
| TATCTTCTTTCAGTGTTGACCTTTGAACAT | 9.23 |
| CAATCCGCATCTTTTATAAGGGGCAGCAAA | 0.937 |
| CACAGCTAAGAGCCGCAGAGCTAATGTTCA | -1.29 |
| TGACAGTGTGTACATAACAATGCAAGATAA | 0.118 |
| GAGAAATCTAGGCTGATAAGACACATTCCA | -0.889 |
| CCACTCTCATGGTCAATATTTTCTTTGTGC | 1.06 |
| AAGGGAGAAATTGCGCTAACCAGATGGTAG | -1.22 |
| CAGAAAGTGATGGGCTGGACTAAGAGTAGC | -1.27 |
| CATTAGACAGAAACCAAGCTGTCCGACTGC | -1.35 |
| ACCCTTTGAGTCCTTCATGGCTACCCTTCA | 0.993 |
| CCATCTCGTCCCGTCAATCTGCAGCCGCCG | -1.33 |
| CTCTCCAAGCCAGAAAGATGTTTGCCCCAA | 2.94 |

| Sequence | binding signal (log2 normalized intensity) |
| --- | --- |
| TATTTGCTCACCAGTGACCAATAATGTAAT | 0.199 |
| AATCCATTGTCAATACCCTGTTATTAGTCC | 1.71 |
| CTCCCACCTTCGAGCTTCACCTTTGTCCTC | 5.83 |
| GGGGCTGCCGGGAAAGGCATACGTGCTTAA | -1.4 |
| TCAGGACTCTAACTGGCTTTAAGAGGAATG | -1.32 |
| CCCTTGGCCCCGCTGTCCTGATCCCTGAGG | 1.69 |
| ATTTCCAAGACCTCTTTGCGGATAGATATG | -0.569 |
| TACTCTAGTACTAGGCAGCATAGGGCCACT | -1.26 |
| TTATCAGGTCTTTCTTTCAGAACAGAGCCC | 0.823 |
| GACTCATTATCCCCCGCAACTATTTATGAG | 2.92 |
| GGTTGGCGCCAATACCTGCCGCGCGGGGCG | -1.39 |
| CTAGCCGCTCCTCCCACGTCGCTGCCGCAG | -1.47 |
| GATATTCAGACCTCTTTGAGGCCTTCGTTG | -1.48 |
| AAAAAGCTTTTGTCATGACCTTCGCTCTTG | 6.44 |
| GTCACCAAAGCAAGCAGATGATATGTGATG | -0.0564 |
| GGGCAGGTGGAGGTGGGATACTGGGAGGGA | -1.32 |
| TTGGTTGGAGAAAGCAGCCAACCAGAGGCT | -1.28 |
| TTCAAAGGTTATCTGCTGGCAGAATTCCTT | -0.0419 |
| TGTTGATAAAGTGATTAGTGCAAGAATCCA | -1.17 |
| TGGAAAAACCACACACTCCATAACTTTGGG | -1.3 |
